{"source": "PubChem BioAssay AID504339", "about": "(National Center for Advancing Translational Sciences (NCATS), 2011)", "note": "About 17,000 (4.4%) of roughly 390,000 compounds were called active. The inconclusive results got no clear call from the source; some entries with a clear call stand among them for comparison. Calls come from the whole dose curve; as a rule, active = well fitted inhibition curve with a large enough effect; inconclusive = small, poorly fitted or top-dose-only effect; inactive = no such curve, though single readings can be large or run the other way. A potency beside an inconclusive call is a rough fit, not a confirmed value. % is set by controls: 0 for no effect and ±100 for the full control effect; potency is the fitted concentration of half-maximal effect; tags give direction and shape of the fitted curve."}
{"molecular_target": "Lysine-specific demethylase 4A (Homo sapiens) (UniProt O75164)", "sequence (O75164 whole entry, looked up, the tested form may be a part)": "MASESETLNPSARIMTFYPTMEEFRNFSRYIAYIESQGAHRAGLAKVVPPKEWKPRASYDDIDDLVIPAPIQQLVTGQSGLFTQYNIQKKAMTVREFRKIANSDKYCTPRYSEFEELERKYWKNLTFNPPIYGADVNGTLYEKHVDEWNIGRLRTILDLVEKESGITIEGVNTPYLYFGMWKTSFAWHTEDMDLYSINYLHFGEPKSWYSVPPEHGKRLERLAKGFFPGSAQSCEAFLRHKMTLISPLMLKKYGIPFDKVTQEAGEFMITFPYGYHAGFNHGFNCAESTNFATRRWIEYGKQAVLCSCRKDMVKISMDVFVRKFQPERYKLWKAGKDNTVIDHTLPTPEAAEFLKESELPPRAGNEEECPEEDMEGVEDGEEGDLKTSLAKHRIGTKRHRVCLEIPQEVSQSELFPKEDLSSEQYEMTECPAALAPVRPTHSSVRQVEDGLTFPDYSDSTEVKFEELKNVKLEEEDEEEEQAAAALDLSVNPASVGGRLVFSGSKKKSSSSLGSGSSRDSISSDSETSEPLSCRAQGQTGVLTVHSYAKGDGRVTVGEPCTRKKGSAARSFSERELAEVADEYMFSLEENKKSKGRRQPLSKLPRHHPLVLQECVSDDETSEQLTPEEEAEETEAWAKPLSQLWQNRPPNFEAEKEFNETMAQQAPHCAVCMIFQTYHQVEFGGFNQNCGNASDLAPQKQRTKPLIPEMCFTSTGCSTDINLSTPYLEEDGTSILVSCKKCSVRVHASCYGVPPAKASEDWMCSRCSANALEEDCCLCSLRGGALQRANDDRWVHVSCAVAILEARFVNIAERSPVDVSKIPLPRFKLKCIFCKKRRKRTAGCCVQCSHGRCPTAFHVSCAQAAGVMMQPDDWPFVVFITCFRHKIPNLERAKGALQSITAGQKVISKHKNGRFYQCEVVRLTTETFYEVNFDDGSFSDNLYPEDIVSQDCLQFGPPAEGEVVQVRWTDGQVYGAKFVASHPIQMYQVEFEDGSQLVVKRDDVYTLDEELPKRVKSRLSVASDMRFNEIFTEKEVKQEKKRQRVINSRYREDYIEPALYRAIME", "test": "qHTS Assay for Inhibitors of JMJD2A-Tudor Domain; note: nearly all actives have a fitted effect of over 50% in size", "conditions": "AlphaScreen JMJD2A-Tudor / H3K4me3 peptide binding; activity change, negative = inhibition: at 114 µM (top of the series)"}
{"smiles": "Cc1ccc(NC2=C(Cl)C(=O)OC2NC(=O)c2ccccc2)cc1", "note": "(configuration not stated)", "Potency": "inactive"}
{"smiles": "C[C@H](CO)N1C[C@H](C)[C@@H](CN(C)S(=O)(=O)c2ccc(F)cc2)Oc2c(NC(=O)NC3CCCCC3)cccc2C1=O", "Potency": "inconclusive: 63.1 µM [inhibitor, partial curve, poor fit]"}
{"smiles": "Fc1ccccc1NC(=S)Nn1cnnc1", "Potency": "active: 50.1 µM"}
{"smiles": "O=C(Nc1ccc2c(c1)CCC2)c1cc(S(=O)(=O)Nc2ccc(F)cc2)c(Cl)cc1Cl", "Potency": "inconclusive: 44.7 µM [inhibitor, partial curve]"}
{"smiles": "Cc1cccc(S(=O)(=O)c2cn(C)c3cc(N4CCN(c5ccc(F)cc5)CC4)c(F)cc3c2=O)c1", "Potency": "inactive"}
{"smiles": "O=[N+]([O-])c1ccc2nc(SCc3ccccc3Cl)sc2c1", "Potency": "inconclusive: 31.6 µM [inhibitor, full curve, poor fit]"}
{"smiles": "COc1cc2ccc(=O)oc2cc1O", "Potency": "inactive"}
{"smiles": "Cc1cc(/C=N\\NC(=O)COc2cccc3cccnc23)c(C)n1-c1ccc(Br)cc1", "Potency": "inconclusive: 28.2 µM [inhibitor, full curve, poor fit]"}
{"smiles": "O=C(Cc1ccccc1)c1nc2ccccc2s1", "Potency": "inconclusive: 56.2 µM [inhibitor, partial curve]"}
{"smiles": "Cc1c(C)n(C)c2ccc(C(=O)NCCCN(C)C3CCCCC3)cc12", "Potency": "inconclusive: 28.2 µM [inhibitor, full curve]"}
{"smiles": "ClC1(CNc2ccccc2)CCN(Cc2ccccc2)CC1", "Potency": "inconclusive: 35.5 µM [inhibitor, partial curve]"}
{"smiles": "CC(C)Sc1oc(-c2ccco2)nc1S(=O)(=O)c1ccc(F)cc1", "Potency": "inconclusive: 56.2 µM [inhibitor, partial curve]"}
{"smiles": "CCC1CCCCN1Cc1ccc(OC)c(C)c1", "note": "(configuration not stated)", "Potency": "active: 7.08 µM"}
{"smiles": "CC(=O)NC(c1ccc(C(C)C)cc1)c1ccc2cccnc2c1O", "note": "(configuration not stated)", "Potency": "active: 56.2 µM"}
{"smiles": "CC(=O)OCC1=C(C(=O)O)N2C(=O)C(NC(=O)c3ccc(COc4ccc(Cl)cc4)o3)C2SC1", "note": "(configuration not stated)", "Potency": "inconclusive: 56.2 µM [inhibitor, partial curve]"}
{"smiles": "CN(C)c1ccc(/C=c2\\sc3n(c2=O)CCCN=3)cc1", "activity change, negative = inhibition": "inactive: -22.6% [at 11.4 µM]"}
{"smiles": "CC(C)OC(=O)c1cc2c(ccn2C)n1CC(=O)N(Cc1ccccc1)c1ccc(F)cc1", "Potency": "active: 17.8 µM"}
{"smiles": "O=C(O)[C@H]1CCCN1S(=O)(=O)c1cccc2cccnc12", "Potency": "inactive"}
{"smiles": "O=C(Nc1cccc([N+](=O)[O-])c1)Nc1cccs1", "Potency": "inconclusive: 56.2 µM [inhibitor, partial curve]"}
{"smiles": "CCOC(=O)c1cc(-c2ccccc2)n(CCCC(=O)Nc2cccc(C)c2)c1C", "Potency": "inconclusive: 56.2 µM [inhibitor, partial curve]"}
{"smiles": "CCCOc1ccc(NC(=O)CC2C(=O)N(c3ccc(OC)cc3)C(=O)N2CCc2ccncc2)cc1", "note": "(configuration not stated)", "Potency": "inactive"}
{"smiles": "COc1ccc(-c2nc(CSCC(=O)NC3CCCc4ccccc43)c(C)o2)cc1OC", "note": "(configuration not stated)", "Potency": "inconclusive: 89.1 µM [inhibitor, single point]"}
{"smiles": "Cc1ccc(Cc2c(C)[nH]c(=S)[nH]c2=O)cc1", "Potency": "inconclusive: 89.1 µM [inhibitor, single point]"}
{"smiles": "CC(C)(C)c1ccc(S(=O)(=O)c2cnc(SCC(=O)Nc3ccc4c(c3)OCCO4)[nH]c2=O)cc1", "Potency": "inactive"}
{"smiles": "CC(/C=N/NC(=O)NC1CCCCC1)=C\\c1ccccc1", "Potency": "inconclusive: 2.82 µM [inhibitor, full curve, poor fit]"}
{"smiles": "O=C(Nc1ccccc1C(F)(F)F)N1CCN(c2ccccn2)CC1", "Potency": "inactive"}
{"smiles": "Clc1ccc(CN2CCc3nc(N4CCN(c5ccccn5)CC4)ncc3C2)cc1", "Potency": "inconclusive: 89.1 µM [inhibitor, single point]"}
{"smiles": "Cc1ccc(/C=N/n2c(C)nnc2C)o1", "Potency": "inconclusive: 20 µM [inhibitor, partial curve]"}
{"smiles": "COc1cc(OC)cc(C(=O)NC(C)CNc2ccc(Cl)cc2[N+](=O)[O-])c1", "note": "(configuration not stated)", "Potency": "inconclusive: 31.6 µM [inhibitor, full curve]"}
{"smiles": "Cc1nnsc1C(=O)Oc1ccc(C#N)cc1", "Potency": "active: 89.1 µM"}
{"smiles": "CCN1CCN(c2nc3c(C)cccn3c(=O)c2/C=C(\\C#N)C(=O)NCCOC)CC1", "Potency": "inactive"}
{"smiles": "O=C(OCC(=O)N1N=C(c2ccc(Cl)cc2)CC1c1ccco1)c1cncc(Br)c1", "note": "(configuration not stated)", "Potency": "inconclusive: 22.4 µM [inhibitor, full curve]"}
{"smiles": "COc1ccc(C)cc1NS(=O)(=O)c1ccc2c(c1)N(C)CCO2", "Potency": "inconclusive: 35.5 µM [inhibitor, partial curve, poor fit]"}
{"smiles": "CN(C(=O)/C=C/c1ccc([N+](=O)[O-])s1)c1ccccc1", "Potency": "inconclusive: 50.1 µM [inhibitor, partial curve, poor fit]"}
{"smiles": "COc1ccc(C(=O)Oc2cc(C(=S)N3CCOCC3)ccc2OC)cc1", "Potency": "inconclusive: 31.6 µM [inhibitor, full curve, poor fit]"}
{"smiles": "O=C(O)C1Nc2c(Cl)cc(Cl)cc2C2C=CCC12", "note": "(configuration not stated)", "Potency": "active: 22.4 µM"}
{"smiles": "O=[N+]([O-])c1ccccc1/C=C/c1ccc2ccccc2n1", "Potency": "active: 39.8 µM"}
{"smiles": "O=C(O)c1ccc(COc2ccccc2/C=C2\\NC(=O)N(Cc3ccccc3F)C2=O)cc1", "Potency": "active: 39.8 µM"}
{"smiles": "Cc1ccc(Nc2nc(CSc3nnc(-c4ccccc4C)n3C)cs2)cc1", "Potency": "active: 79.4 µM"}
{"smiles": "Cc1nnc2c3ccccc3nc(Nc3ccccc3C(=O)O)n12", "Potency": "inconclusive: 44.7 µM [inhibitor, partial curve, poor fit]"}
{"smiles": "COc1ccc(S(=O)(=O)Nc2cc(-c3cn4ccc(C)cc4n3)ccc2C)cc1OC", "Potency": "inconclusive: 56.2 µM [inhibitor, partial curve]"}
{"smiles": "CC1CCN(S(=O)(=O)c2ccc(NC(=O)Cc3cccs3)cc2)CC1", "Potency": "active: 50.1 µM"}
{"smiles": "O=C(CSc1nnc(Nc2ccccc2F)s1)NCc1ccco1", "Potency": "inconclusive: 56.2 µM [inhibitor, partial curve]"}
{"smiles": "Cc1ccc(Cl)cc1NC(=O)c1nnn(Cc2ccccc2)c1N", "Potency": "inactive"}
{"smiles": "O=C(COC(=O)c1cc(-c2ccccc2Cl)nc2ccccc12)Nc1ncc(C(F)(F)F)cc1Cl", "Potency": "inconclusive: 89.1 µM [inhibitor, single point]"}
{"smiles": "Cc1ccc(-n2ncc(C(=O)NCc3ccccn3)c2C2CCN(C(=O)OC(C)(C)C)CC2)cc1C", "Potency": "inactive"}
{"smiles": "COc1ccccc1NC(=O)CCC(=O)c1ccc(-c2ccccc2)cc1", "Potency": "active: 25.1 µM"}
{"smiles": "Cc1ccc(C)c(NC(=O)c2cc(S(=O)(=O)N3CCN(c4cccc(Cl)c4)CC3)ccc2F)c1", "Potency": "inactive"}
{"smiles": "O=C(CNc1ccc2ccccc2c1)N/N=C/C=C/c1cccc([N+](=O)[O-])c1", "Potency": "inconclusive: 89.1 µM [inhibitor, partial curve]"}
{"smiles": "O=S(=O)(NNc1ccc(F)cc1F)c1cccc(Cl)c1", "Potency": "active: 10 µM"}
{"smiles": "COc1cccc(CN2CCNC(=O)C2CC(=O)NC2CCCCC2)c1OC", "note": "(configuration not stated)", "Potency": "inactive"}
{"smiles": "CCN(CC(=O)NCc1cccs1)C(=O)c1ccc(S(=O)(=O)Nc2cccc(C)c2C)cc1", "Potency": "inactive"}
{"smiles": "CCC(CO)Oc1cc(NCc2cccc(C)c2)c2ncn(C(C)C)c2c1", "note": "(configuration not stated)", "Potency": "inconclusive: 70.8 µM [inhibitor, single point]"}
{"smiles": "Cc1ccc(NC(=O)Cn2c(=O)n(-c3ccccc3)c(=O)c3ccc(C(=O)NCc4ccc5c(c4)OCO5)cc32)cc1", "Potency": "inactive"}
{"smiles": "CCN(C(=O)Cn1cc(S(=O)(=O)N2CCN(c3ccccc3F)CC2)c2ccccc2c1=O)c1ccc(C)c(C)c1", "Potency": "inactive"}
{"smiles": "CN1CCc2c(sc3c2c(=O)n(-c2ccccc2)c2nnc(SCc4ccccc4)n32)C1", "Potency": "active: 89.1 µM"}
{"smiles": "CNC(=O)c1c(C)[nH]c(=S)c(C#N)c1-c1ccco1", "Potency": "active: 17.8 µM"}
{"smiles": "COc1ccc(Nc2ncc3c(n2)CCN(Cc2cccc(F)c2F)C3)c(OC)c1", "Potency": "inconclusive: 44.7 µM [inhibitor, partial curve]"}
{"smiles": "C#CCOCCOCCOCCNc1nc(N2CCN(C(=O)CCCCCCCCCCNC(=O)Cn3cc(CCCCCN)nn3)CC2)nc(N2CCN(C(=O)CCCCCCCCCCNC(=O)[C@H](CO)n3cc(CCCSC)nn3)CC2)n1", "Potency": "active: 79.4 µM"}
{"smiles": "CCOC(=O)C1Nc2ccc(OC(F)(F)F)cc2C2C=CCC12", "note": "(configuration not stated)", "Potency": "active: 25.1 µM"}
{"smiles": "O=[N+]([O-])c1cc(S(=O)(=O)Nc2ccccc2)ccc1NCc1ccccc1", "Potency": "inconclusive: 31.6 µM [inhibitor, partial curve]"}
{"smiles": "Cc1cc(C(=O)CN2C(=O)NC(C)(CC(C)C)C2=O)c(C)n1-c1ccc2c(c1)OCO2", "note": "(configuration not stated)", "Potency": "inconclusive: 56.2 µM [inhibitor, partial curve]"}
{"smiles": "COC(=O)c1ccc(Sc2ccc(C)cc2)c(N)c1", "Potency": "inactive"}
{"smiles": "Cn1c(=O)[nH]c(=O)c2c1nc(NN)n2CCOc1ccccc1", "Potency": "inconclusive: 79.4 µM [inhibitor, single point]"}
{"smiles": "O=C(NC(C(=O)c1ccccc1)n1c(=O)cc[nH]c1=S)c1ccccc1", "note": "(configuration not stated)", "Potency": "inconclusive: 89.1 µM [inhibitor, single point]"}
{"smiles": "C/C(CC1CC(C)(C)OC1=O)=N/Nc1nc(-c2ccccc2)cs1", "note": "(configuration not stated)", "Potency": "inconclusive: 35.5 µM [inhibitor, single point]"}
{"smiles": "COc1ccc(S(=O)(=O)NCCSCc2ccco2)cc1Cl", "Potency": "inconclusive: 70.8 µM [inhibitor, single point]"}
{"smiles": "Cc1ccc(N2C(=O)CCC2=O)c(C)c1", "Potency": "inactive"}
{"smiles": "COc1ccc(C(C[N+](=O)[O-])c2c(-c3ccccc3)cc3ccccn23)c(OC)c1", "note": "(configuration not stated)", "Potency": "inconclusive: 39.8 µM [inhibitor, partial curve]"}
{"smiles": "O=c1[nH]c2ccccc2n1Cc1ccccc1", "Potency": "inactive"}
{"smiles": "C=CCn1c(Cc2csc(N)n2)nnc1SCC(=O)OCC", "Potency": "active: 44.7 µM"}
{"smiles": "CCN(CC)CCNC(=O)c1ccccc1C(=O)c1ncc[nH]1", "Potency": "inconclusive: 15.8 µM [inhibitor, single point]"}
